Laboratory results reported in article PMC9932110 (2023).

Molecular target: the molecule itself
Assay: SEC-MALS

B1: RanBP9-Twa1 complex (protein)
chain 1: MSGQPPPPPPQQQQQQQQLSPPPPAALAPVSGVVLPAPPAVSAGSSPAGSPGGGAGGEGLGAAAAALLLHPPPPPPPATAAPPPPPPPPPPPASAAAPASGPPAPPGLAAGPGPAGGAPTPALVAGSSAAAPFPHGDSALNEQEKELQRRLKRLYPAVDEQETPLPRSWSPKDKFSYIGLSQNNLRVHYKGHGKTPKDAASVRATHPIPAACGIYYFEVKIVSKGRDGYMGIGLSAQGVNMNRLPGWDKHSYGYHGDDGHSFCSSGTGQPYGPTFTTGDVIGCCVNLINNTCFYTKNGHSLGIAFTDLPPNLYPTVGLQTPGEVVDANFGQHPFVFDIEDYMREWRTKIQAQIDRFPIGDREGEWQTMIQKMVSSYLVHHGYCATAEAFARSTDQTVLEELASIKNRQRIQKLVLAGRMGEAIETTQQLYPSLLERNPNLLFTLKVRQFIEMVNGTDSEVRCLGGRSPKSQDSYPVSPRPFSSPSMSPSHGMNIHNLASGKGSTAHFSGFESCSNGVISNKAHQSYCHSNKHQSSNLNVPELNSINMSRSQQVNNFTSNDVDMETDHYSNGVGETSSNGFLNGSSKHDHEMEDCDTEMEVDSSQLRRQLCGGSQAAIERMIHFGRELQAMSEQLRRDCGKNTANKKMLKDAFSLLAYSDPWNSPVGNQLDPIQREPVCSALNSAILETHNLPKQPPLALAMGQATQCLGLMARSGIGSCAFATVEDYLH
chain 2: [about 250 residues left out]
- Kd: 1800 nM
